# Assay results published in PubChem BioAssay AID743279 (National Center for Advancing Translational Sciences (NCATS), 2014).
# Screen size: about 360,000 compounds; about 17,000 (4.7%) were called active. Inconclusive results, whose numbers are uncertain, are shown with a selection of clear calls. No stated cut-off is given here; in the data, active means activity change below about -50%; inconclusive means mostly about -30% to -49%; inactive means weaker than that.
# Experiment: qHTS for Inhibitors of Inflammasome Signaling: IL-1-beta AlphaLISA Primary Screen
# Settings: THP-1 LPS/ATP IL-1B secretion, 16 h; at 57.5 µM, stronger effect = lower value
# Procedure, shortened: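 Secreted IL-1B measured by AlphaLISA bead assay after 16 h compound exposure of THP-1 cells; compounds (final up to 57.5 uM) added 1 h before LPS (250 ng/mL) and ATP (1.25 mM) stimulation; lower signal means less secretion.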
# On the % scale 0 is the no-effect control and ±100 the full control effect.
row,Structure (SMILES),activity change
1,COC(=O)[C@@]1(Sc2ccc(C)cc2)CC(=O)N[C@@H]1c1ccc(C(F)(F)F)cc1,inconclusive: -31%
2,CCc1ccc2[nH]c(=O)c(CN(CCN(C)C)C(=O)Nc3ccccc3OC)cc2c1,inconclusive: -48%
3,COc1ccc(/C=C2\N=C3CCCN3C2=O)cc1,inconclusive: -44.6%
4,O=C(NCCc1ccccc1)c1cc(-c2ccccc2)c(N2CCOCC2)s1,inconclusive: -39.7%
5,COc1cc(C(C(=O)NC(C)(C)C)N(Cc2ccc3c(c2)OCO3)C(=O)c2cnccn2)cc(OC)c1OC (stereo not given),inconclusive: -48.8%
6,CCc1ccccc1N(CC)C(=O)CCc1nc(-c2ccc(C)cc2)no1,inconclusive: -43.9%
7,C=C(C)CNC(=S)N/N=C/c1c(F)cccc1F,inactive: -14.9%
8,O=C(Nc1ccccc1)NC1(C(=O)NCc2cccs2)CCCCC1,inactive: 3.31%
9,CCN(CC(=O)Nc1cc(Cl)ccc1C)c1ncnc2sc(C)c(C)c12,active: -61.2%
10,COc1cccc(C(=O)N2CCC(n3nccc3NC(=O)C(OC)c3ccccc3)CC2)c1 (stereo not given),inactive: 0%
11,O=C(Nc1ccc(S(=O)(=O)N2CCCC2)cc1)c1ccc([N+](=O)[O-])o1,active: -56.5%
12,Cc1ccccc1S(=O)(=O)Nc1nc2ccccc2nc1N1CCOCC1,inactive: 3.26%
13,CSc1nc(-c2ccccc2)c(C#N)c(=O)n1C,inconclusive: -37.6%
14,Cc1noc(C)c1C(=O)N1CCC2(CC1)Oc1ccc(F)cc1C(=O)C21CC(c2ccc(Cl)cc2)=NO1 (stereo not given),inconclusive: -42.8%
15,Cc1nn(-c2ccc([N+](=O)[O-])cc2)c2c1C(c1ccc(OC(F)F)cc1)N1C(=N2)C(=O)Nc2ccccc21 (stereo not given),inconclusive: -36.7%
16,Cc1ccc(C(C)C)c(OCCNCc2ccccc2)c1,inconclusive: -39.2%
17,COCCn1c(C)cc(C(=O)COC(=O)c2ccc3c(c2)NC(=O)CS3)c1C,inconclusive: -38.1%
18,CCOc1c2ccc(C(=O)NCC34CC5CC(CC(C5)C3)C4)cc2nn1CC,inconclusive: -35.6%
19,CSc1cccc(CN2CCCC(CNC(=O)c3ccc(F)cc3)C2)c1 (stereo not given),inconclusive: -38.6%
20,COC(=O)C(C)n1cnc2c(nnn2-c2cccc(Cl)c2)c1=O (stereo not given),inconclusive: -34.3%
21,O=C(CNc1cc(S(=O)(=O)N2CCOCC2)ccc1N1CCCC1)Nc1ccc(Cl)cc1F,inconclusive: -36.1%
22,CCN(CC)C(=O)C1CCN(Cc2ccc(OCc3ccccc3)c(OC)c2)CC1,inconclusive: -35.4%
23,CCOC(=O)c1c(CN2CCOCC2)n(-c2ccccc2)c2cc(Br)c(O)c(CN(C)C)c12,inconclusive: -38%
24,Cn1cc([N+](=O)[O-])c(C(=O)Nc2sc3c(c2C#N)CCC3)n1,active: -92.8%
25,CC(=O)N1CCOc2ccc(S(=O)(=O)N(C)c3ccc(C)cc3)cc21,inactive: 21.7%
26,N#Cc1cc(O)c(-n2nnc3ccccc32)cc1C#N,inactive: 34%
27,CN(C)CCCn1c(=S)[nH]c2sc3c(c2c1=O)CCCC3,inconclusive: -32%
28,COc1cc2c(cc1OC)-c1c(OC)c(OC)cc3ccnc(c13)C2=O,inconclusive: -33.9%

row,Structure (SMILES),activity change
1,COc1ccc(O)c(C(=O)c2cnc3c(c2)c(C)nn3CCO)c1,inactive: 25.7%
2,Cc1cccc(-n2c(SCC(=O)N3CC(=O)Nc4ccccc43)nc3ccccc3c2=O)c1,inconclusive: -46%
3,O=C(Cn1cnc2ccccc21)N/N=C/C(Br)=C/c1ccccc1,inconclusive: -30.7%
4,COc1cccc(C(=O)Nc2ccc(Cl)c(C(F)(F)F)c2)c1,inconclusive: -35%
5,O=C(/C=C/N1CCOCC1)c1ccc(-c2ccccc2)cc1,inactive: -0.93%
6,O=C1/C(=C/c2cccnc2)CCc2c1[nH]c1ccccc21,active: -103%
7,O=S(=O)(NC1=NCCCCC1)c1ccc(Cl)cc1Cl,inconclusive: -33.6%
8,CCCc1[nH][nH]c(=O)c1C(c1ccc(Br)cc1)C(C#N)C#N (stereo not given),inconclusive: -44.2%
9,CCCC1=C([O-])C2N=CC=CC2=[N+](c2ccccn2)C1=O (stereo not given),inactive: -10.1%
10,Cc1ccc(CNCCC2=CCCCC2)cc1,active: -69.5%
11,Cc1cc2nc3c(nc2cc1C)C(O)=C3O,inactive: -3.08%
12,Brc1ccc(OCCCCN2CCCCC2)cc1,inactive: -8.35%
13,CCn1cc(C(=O)NCc2ccc(C)cc2)c(=O)c2cc(S(=O)(=O)N(C)C)ccc21,inconclusive: -35.4%
14,COc1ccc(-c2c(C)nn3c(N)c(-c4ccccc4)cnc23)cc1OC,inconclusive: -41.2%
15,CCN(CC)c1ccc2cc(C(N)=O)/c(=N\NC(=O)c3ccncc3)oc2c1,inconclusive: -34.5%
16,CNC(=O)c1c(NC(=O)c2ccco2)sc(C)c1C,inconclusive: -37.5%
17,C=C(C)CNC(=S)NNC(=O)CCn1c2ccc(Cl)cc2c2cc(Cl)ccc21,active: -99.9%
18,O=C(CN1C(=O)NC2(CCCC2)C1=O)NC(c1ccccc1)c1ccccc1,active: -81.7%
19,COc1cccc(CNCc2cc(OC)cc(OC)c2)c1,inconclusive: -34%
20,O=c1c([N+](=O)[O-])cn(Cc2ccccc2)c(=O)n1Cc1ccccc1,inconclusive: -36.3%
21,COc1ccc2c(C)nc(Nc3nc(-c4ccccc4)cc(=O)[nH]3)nc2c1,active: -63.4%
22,O=C1/C(=C/c2ccccc2[N+](=O)[O-])COc2ccccc21,active: -104%
23,CN1C(=O)C(O)(CC(=O)/C=C/C=C/c2ccccc2)c2ccccc21 (stereo not given),inconclusive: -32.7%
24,NC(=O)c1nsc(C(=O)N(c2ccc(F)cc2)C(C(=O)NCC2CCCO2)c2ccc3ncccc3c2)c1N (stereo not given),inconclusive: -43.4%
25,COc1ccc2nc(C)cc(N/N=C/c3cccc(OC)c3O)c2c1,active: -98.6%
26,CCOC(=O)c1ccc(NC(=O)c2ccc(NC(=O)C3CCCO3)cc2)cc1 (stereo not given),inconclusive: -33.4%
27,O=C1NC[C@H](Cc2ccccc2)N(C[C@H]2CCCN2C[C@H](Cc2ccc(O)cc2)N2C[C@H](Cc3ccc(O)cc3)N(CC3CCCCCC3)C(=O)C2=O)C1=O,inconclusive: -36.2%
